Experimental data reported in article PMC4336329 (PLoS ONE, 2015).
The whole screen tested about 310,000 compounds, of which about 14,000 (4.5%) showed an effect of 50% or more. The effect is printed as a negative number. The list shows a part of the results.

Each compound was assayed against human ether-à-go-go-related gene (hERG) potassium channel (human, UniProt Q12809) (assay: primary screen, population patch clamp on CHO cells stably expressing hERG).
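Further: peak tail current of the secondary pulse compared with the same well before compound.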

human ether-à-go-go-related gene (hERG) potassium channel, sequence (Q12809 whole entry, looked up): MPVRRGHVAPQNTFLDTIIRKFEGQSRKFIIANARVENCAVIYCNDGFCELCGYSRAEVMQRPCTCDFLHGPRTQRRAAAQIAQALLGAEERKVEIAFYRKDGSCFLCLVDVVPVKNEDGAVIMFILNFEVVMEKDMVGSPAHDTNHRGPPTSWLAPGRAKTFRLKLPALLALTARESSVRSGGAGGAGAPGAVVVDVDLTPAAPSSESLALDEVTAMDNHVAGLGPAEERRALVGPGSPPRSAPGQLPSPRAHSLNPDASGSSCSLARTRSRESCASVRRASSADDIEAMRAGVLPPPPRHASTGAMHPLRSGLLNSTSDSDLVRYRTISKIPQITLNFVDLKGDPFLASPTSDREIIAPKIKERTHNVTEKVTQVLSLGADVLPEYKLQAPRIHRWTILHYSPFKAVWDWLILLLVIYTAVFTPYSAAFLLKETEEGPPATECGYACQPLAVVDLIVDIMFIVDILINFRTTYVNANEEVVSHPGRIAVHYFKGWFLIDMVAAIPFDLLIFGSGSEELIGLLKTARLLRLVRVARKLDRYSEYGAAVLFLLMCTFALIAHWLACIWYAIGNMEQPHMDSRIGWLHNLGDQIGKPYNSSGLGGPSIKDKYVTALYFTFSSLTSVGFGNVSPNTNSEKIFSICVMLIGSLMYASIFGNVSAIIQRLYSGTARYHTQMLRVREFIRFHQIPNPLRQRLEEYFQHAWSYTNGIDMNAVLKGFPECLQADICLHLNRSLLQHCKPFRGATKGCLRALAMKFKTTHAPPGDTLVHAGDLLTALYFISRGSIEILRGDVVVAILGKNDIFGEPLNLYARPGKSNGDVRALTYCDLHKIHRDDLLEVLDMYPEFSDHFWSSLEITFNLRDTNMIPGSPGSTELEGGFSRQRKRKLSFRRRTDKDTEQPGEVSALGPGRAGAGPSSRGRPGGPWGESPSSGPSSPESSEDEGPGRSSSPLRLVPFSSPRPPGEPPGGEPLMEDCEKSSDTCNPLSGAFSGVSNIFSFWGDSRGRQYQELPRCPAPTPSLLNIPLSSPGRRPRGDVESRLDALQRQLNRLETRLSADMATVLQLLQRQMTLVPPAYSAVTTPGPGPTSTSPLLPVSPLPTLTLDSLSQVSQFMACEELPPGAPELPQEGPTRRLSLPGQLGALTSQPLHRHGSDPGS

Compound	hERG current change (%, negative = inhibition) at 10uM [%]
COc1ccc(CCNC(=O)CSc2ccc(NC(C)=O)cc2)cc1OC	19
O=C(O)C1OC2OC3(CCCCC3)OC2C2OC3(CCCCC3)OC12 (stereo not drawn)	3.07
CC(=O)Nc1cc(N2C(=O)CCC2=O)ccc1Cl	-1.27
O=C(CN(Cc1ccccc1)S(=O)(=O)c1ccccc1)N1CCOCC1	-0.744
CCC(=O)NCCc1nc2cc(NC(=O)c3cccs3)ccc2n1C	5.09
Cc1cnn(CCC(=O)NNC(=S)Nc2cccc(Cl)c2)c1	0.594
COC(=O)C1=C(c2cc3ccccc3o2)C[C@@H]2CC[C@H]1N2C(=O)N1CCOCC1	2.81
Cc1cccc(C(=O)Nc2nnc(Cc3c[nH]c4ccccc34)s2)c1	12.7
CCNC(=O)COc1cccc(C(=O)NCc2ccccc2)c1	3.61
COc1ccc(C2(CNC(=O)Cc3ccc(OC)c(OC)c3)CCOCC2)cc1	13
CCOC(=O)c1[nH]c2ccccc2c1NC(=O)c1ccc(S(=O)(=O)N2CCCC2)cc1	0.437
O=C(CCCC(=O)N(CC(=O)NC1CCCCC1)c1ccccc1F)Nc1ccccn1	-3.61
O=C(NCCc1ccccc1)C1CCC(CNS(=O)(=O)c2ccc(F)cc2)CC1 (stereo not drawn)	4.08
CN(c1ccccc1)S(=O)(=O)c1ccc2[nH]c(=O)[nH]c2c1	4.25
O=C(c1ccccn1)N(Cc1ccco1)C1(C(=O)NC2CCCC2)CCCCC1	-5.62
CC#C[C@@H](CC)c1ccc2ccn(C)c2c1	-4.51
Cc1cc(C)c(NC(=O)CSc2nc(=O)n(CCN3CCOCC3)c3c2CCCC3)c(C)c1	-28.3
CCOC(=O)N1CCN(C(=O)c2cn(CC(C)C)c(=O)c3c2c2ccccc2n3C)CC1	-24.4
Cc1cccc[n+]1CC(=O)c1ccccc1.[Br-]	7.9
O=C1C=C(NNC(=O)c2ccncc2)CC(c2ccccc2)C1 (stereo not drawn)	-1.64
NNC(=O)c1ccc(CSc2nc3ccccc3[nH]2)cc1	21.8
Cc1cc(C)nc(NS(=O)(=O)c2ccc(NC(=O)CCC(=O)O)cc2)n1	14.8
COc1ccccc1Nc1cc(C(=O)NC2CCCC2)c2ccccc2n1	12.9

Compound	hERG current change (%, negative = inhibition) at 10uM [%]
O=C(CCSCc1ccc(Cl)cc1)NCc1cccs1	-44.9
Cc1cc(C)c(NS(=O)(=O)c2ccc3c(c2)NC(=O)C(C)C(=O)N3)c(C)c1 (stereo not drawn)	2.12
O=C1/C(=C/c2ccc(O)cc2)SC(=S)N1CC1CCCO1 (stereo not drawn)	4.44
COCCNC(=O)c1ccc(CS(=O)(=O)c2ccccc2OC)o1	14.1
Cc1ccc(C)c(S(=O)(=O)N2CCCOC2CNC(=O)C(=O)NCc2ccco2)c1 (stereo not drawn)	11.6
Nc1ccc(-c2nnc(-c3ccc(N)cc3)o2)cc1	-7.98
Cn1cc(CN2CCN(CC(C)(C)C)C(CCO)C2)c2ccccc21 (stereo not drawn)	5.09
CC(C)C1NC(C(=O)O)Cc2c1[nH]c1ccccc21 (stereo not drawn)	-19.5
COc1ccc(CCNc2ccc(C(CC(N)=O)NC(=O)c3cc(OC)ccc3OC)cc2[N+](=O)[O-])cc1 (stereo not drawn)	-0.728
O=[N+]([O-])c1ccc(CN2CCOCCOCCN(Cc3ccc([N+](=O)[O-])cc3)CCOCC2)cc1	-77.8
COc1ccc(NC(=O)Nc2cccs2)cn1	11.5
CCOc1cc(N2CCOCC2)c(OCC)cc1NC(=O)c1c(-c2ccccc2)noc1C	-25.5
CCN1C[C@]2(CO)CC[C@H](OC)[C@@]34C5C[C@H]6[C@H](OC)C5[C@](O)(C[C@H]6OC)[C@@H](C(OC)C23)[C@@H]14 (stereo partly drawn)	2.04
Cc1nn(CC(=O)NCCc2ccco2)c(=O)c2nn(-c3ccccc3)c(C)c12	5.5
O=C(Nc1ccccc1N1CCOCC1)c1cccc(S(=O)(=O)N2CCOCC2)c1	-30.5
COc1cccc(NS(=O)(=O)c2ccc3[nH]cc(C(=O)NCCCOC(C)C)c(=O)c3c2)c1	11.5
COc1cc(C(=S)N2CCN(C(c3ccccc3)c3ccccc3)CC2)cc(OC)c1O	24.3
Cc1ccc(/C(N)=N/OC(=O)C(C)c2ccc([N+](=O)[O-])cc2)cc1 (stereo not drawn)	-4.62
CCCCc1ccc(/C=C2\C(=O)ON=C2c2ccccc2)s1	33.3
CCCCC(C(=O)OCC(=O)c1ccc(OC)cc1)N1C(=O)c2ccccc2C1=O (stereo not drawn)	3.96
C=CCNC(=O)c1ccc2nc(Cc3ccc(OC)cc3)oc2c1	6.74
Cc1ccc(Nc2cc(C)nc3ccccc23)c(C)c1	-42.8
